Experimental data published in article PMC4336329 (PLoS ONE, 2015).
The whole screen tested about 310,000 compounds, of which about 14,000 (4.5%) showed an effect of 50% or more. The effect is printed as a negative number. The list shows a part of the results.

Biological target: human ether-à-go-go-related gene (hERG) potassium channel (human, UniProt Q12809)
Test: primary screen, population patch clamp on CHO cells stably expressing hERG
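Further: peak tail current of the secondary pulse compared with the same well before compound.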

Chain of human ether-à-go-go-related gene (hERG) potassium channel (Q12809 whole entry, looked up): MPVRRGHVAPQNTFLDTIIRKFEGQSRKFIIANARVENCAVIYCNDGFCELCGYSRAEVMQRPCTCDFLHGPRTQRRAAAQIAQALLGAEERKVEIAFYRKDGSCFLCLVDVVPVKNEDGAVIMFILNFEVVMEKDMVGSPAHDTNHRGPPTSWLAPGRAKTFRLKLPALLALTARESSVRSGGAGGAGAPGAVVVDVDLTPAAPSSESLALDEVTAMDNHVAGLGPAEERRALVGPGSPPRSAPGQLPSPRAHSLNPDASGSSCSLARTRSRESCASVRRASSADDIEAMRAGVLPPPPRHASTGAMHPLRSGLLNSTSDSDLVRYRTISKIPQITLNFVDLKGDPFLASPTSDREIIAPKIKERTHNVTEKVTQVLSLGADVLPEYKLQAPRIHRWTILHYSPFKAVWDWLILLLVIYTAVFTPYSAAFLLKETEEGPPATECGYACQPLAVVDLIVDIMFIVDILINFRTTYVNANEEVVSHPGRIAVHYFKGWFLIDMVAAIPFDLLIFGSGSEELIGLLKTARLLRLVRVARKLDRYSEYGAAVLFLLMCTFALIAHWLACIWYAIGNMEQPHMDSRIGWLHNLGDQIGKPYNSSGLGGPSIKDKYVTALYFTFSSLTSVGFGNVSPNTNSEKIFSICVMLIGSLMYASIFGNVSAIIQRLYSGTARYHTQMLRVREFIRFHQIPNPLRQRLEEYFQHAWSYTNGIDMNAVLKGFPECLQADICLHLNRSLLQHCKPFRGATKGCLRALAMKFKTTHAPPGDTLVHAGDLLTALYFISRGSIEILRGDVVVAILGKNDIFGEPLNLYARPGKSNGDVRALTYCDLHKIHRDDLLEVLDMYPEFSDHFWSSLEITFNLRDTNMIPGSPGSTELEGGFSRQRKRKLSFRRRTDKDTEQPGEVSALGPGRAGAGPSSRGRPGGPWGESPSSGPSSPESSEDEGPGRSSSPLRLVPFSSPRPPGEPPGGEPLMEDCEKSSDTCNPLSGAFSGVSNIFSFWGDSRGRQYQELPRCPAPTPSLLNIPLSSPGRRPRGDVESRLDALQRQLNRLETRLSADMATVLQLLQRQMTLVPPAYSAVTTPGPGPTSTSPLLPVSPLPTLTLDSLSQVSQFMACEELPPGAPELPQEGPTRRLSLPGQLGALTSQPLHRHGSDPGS

Structure (SMILES)	hERG current change (%, negative = inhibition) at 10uM
Cc1c(Cl)ccc(S(=O)(=O)NCCCn2ccnc2)c1Cl	-8.68%
COC1CCN(C(=O)CC2C(=O)NCCN2CC(C)(C)C)CC1 (centres unmarked)	18.5%
COc1ccc(NC(=O)CC(C)(C)C)c([N+](=O)[O-])c1	-1.18%
CSCCCNC(=O)c1ccccc1OC1CCN(S(C)(=O)=O)CC1	1.38%
COC(=O)c1cn(NC(=O)c2cccc(OC)c2)c(=O)c2ccccc12	16.4%
COc1ccc(CN=C(C#N)C2=C(O)c3ccccc3C2=O)cc1	11.6%
O=C(Cc1ccc(Cl)cc1)NCCS(=O)c1ccc(Cl)cc1 (centres unmarked)	-29.6%
O=C(/C=C/c1ccccn1)c1cc(Br)ccc1O	-37.3%
c1ccc(-c2csc(N3CCCCCC3)n2)cc1	7.66%
Cc1cc(C)c(NC(=O)COC(=O)Cc2ccsc2)c(C)c1	20.8%
CCCn1c(NCc2ccccn2)nc2ccccc21	-16%
CCn1c(SCC(=O)NCc2ccccc2)nnc1-c1cccnc1	16.8%
COc1ccc(NC(=O)CN2CCN(c3ccccc3F)CC2)cc1	-18.1%
COc1ccccc1-c1nnc(SCC(=O)N2CCOCC2)n1-c1ccccc1	-0.0657%
CC1(C)CC(=O)C(C=Nc2ccccc2C(=O)O)=C(O)C1	0.8%
O=C(c1cccc([N+](=O)[O-])c1)N1CCN(S(=O)(=O)/C=C/c2ccccc2)CC1	-64.3%
Cn1nc(-c2ccc(C(=O)N3CCN(Cc4ccccc4)CC3)cc2)c2ccccc2c1=O	-41.7%
O=C(c1ccc(Cn2c(=S)[nH]c3ccc(N4CCOCC4)cc3c2=O)cc1)N1CCN(c2ccc(F)cc2)CC1	13.2%
CC(C)NC(=O)C(=O)NCCc1ccc(Cl)cc1	12%
Oc1c(C=C2N=c3ccccc3=N2)sc(=S)n1-c1ccc2ccccc2c1	4.51%
CC(C)c1ccc(C(=O)N/N=C/c2cccc(Cl)c2Cl)cc1	1.54%
CC(C)(C)NNC(=S)Nc1ccc(S(=O)(=O)N2CCOCC2)cc1	9.07%
CN(Cc1ccccc1)C(=O)c1oc(=O)c2ccccc2c1-c1ccccc1	-13.1%

Structure (SMILES)	hERG current change (%, negative = inhibition) at 10uM
Cc1cc(C)c(OCCN2CCOCC2)c(Cl)c1	8.09%
CC(C)C(C(=O)Nc1ncn[nH]1)N1C(=O)c2ccccc2C1=O (centres unmarked)	11.2%
CCOc1ccc(C2C(C#N)=C(N)Oc3cc(C)[nH]c(=O)c32)cc1OC (centres unmarked)	-6.65%
O=C(COc1ccc(Cl)cc1)NCCC1=CCCCC1	-10.1%
Cc1n[nH]c(C)c1S(=O)(=O)N1CCC(C(=O)Nc2cccc(F)c2)CC1	-8.28%
CCOc1ccc(N2CC(C(=O)NC3CCCC3)CC2=O)cc1 (centres unmarked)	2.11%
CCc1ccc(N(C(=O)c2csnn2)C(C(=O)NC(C)(C)C)c2ccncc2)cc1 (centres unmarked)	-5.68%
CC(/C=C/c1cccc([N+](=O)[O-])c1)=N/NC(=O)c1cccnc1	-22.7%
O=c1cc(O)nc(-c2ccc(Cl)cc2)s1	13.1%
CCN1C(=O)/C(=C\C=C2/C=CC=CN2CC)SC1=S	-5.68%
O=C(Oc1cccc([N+](=O)[O-])c1)c1ccc2c(=O)n3c(nc2c1)CCC3	-47.9%
Cc1ccccc1Nc1nc2ccccc2s1	-7.2%
N#CC1=C(SCc2ccccc2)NC(=O)CC1c1ccc(O)cc1 (centres unmarked)	-11%
O=C(Cn1cnc2ccccc21)c1ccc(Br)cc1	-15.1%
Cc1ccc(CNC(=O)c2cc3ccccc3oc2=O)cc1	0.761%
CCCCCCc1c(C)nc(-n2[nH]c(C)c(CCO)c2=O)[nH]c1=O	9.15%
COc1cccc(C(=O)NN2C(=O)C3C4C=CC(O4)C3C2=O)c1 (centres unmarked)	22.9%
O=C(NCc1ccccn1)c1ccc2nc(C3CCCCC3)oc2c1	22.5%
CCn1nc(CC(=O)Nc2nnc(CC(=O)N3CCCC3)s2)c2ccccc2c1=O	0.588%
Oc1ccc(-c2nc3ccccc3nc2-c2ccccc2)cc1	-6.06%
CCc1cc2ccccc2nc1Cl	6.29%
CCOC(=O)C1=C(c2ccccc2)NC(=S)NC1c1ccc(C)c([N+](=O)[O-])c1 (centres unmarked)	-15.6%
CCOc1ccc(OCC)c(Nc2cc(C)nc3ncnn23)c1	-24.1%

Structure (SMILES)	hERG current change (%, negative = inhibition) at 10uM
Cc1csc(SCC(=O)NC(=O)NCCC(C)C)n1	-14%
CCCN(CCC)C(=O)C1CC(=O)OC12CCOC(C)(C)C2 (centres unmarked)	-1.8%
Cc1c(Cc2ccccc2)c(=O)oc2c(C)c(OCC(=O)N[C@@H](Cc3ccccc3)C(=O)O)ccc12	-2.39%
Cc1cc2c3c(c1C)C1(C(=O)N3C(C)(C)CC2C)C(C#N)=C(N)Oc2n[nH]c(C)c21 (centres unmarked)	-11.7%
Clc1ccc(-c2nc(/C=N/N3CCOCC3)c3ccccn23)cc1	-5.18%
COC(=O)c1sc2cc(C(F)(F)F)cnc2c1-c1cccnc1	-14.8%
O=[N+]([O-])c1cccc(NC(=S)Nc2nc(-c3ccc(Cl)cc3Cl)cs2)c1	13.9%
Cc1ccc(-c2cc(N)n[nH]2)cc1	9.35%
COc1ccccc1NC(=O)C(=O)NCC(c1ccco1)N1CCc2ccccc21 (centres unmarked)	-1.64%
CCOc1ccccc1-c1cc(-c2ccc(OC)cc2)nc2c1c(=O)n(C)c(=O)n2C	-5.84%
CC(=O)N(c1ccc(Br)cc1)C1C=CS(=O)(=O)C1 (centres unmarked)	-1.24%
O=C(NC1CC1)C1CCC(=O)N1C1CCCC1 (centres unmarked)	6.82%
CCOc1ccc(Nc2cc(C)nc(-n3nc(C)cc3C)n2)cc1	-19.8%
O=C(NNc1cccc(Cl)c1)c1cccnc1Cl	9.19%
Cc1noc(/C=C/N(C)C)c1S(=O)(=O)N1CCCC(C(=O)NC2CCCCC2)C1 (centres unmarked)	-5.49%
O=c1c2cc(Cl)ccc2oc2nc3n(c(=O)c12)CCCS3	-12.3%
O=C(CNC(=O)c1ccco1)N/N=C/c1ccc(O)cc1O	19.9%
Cc1[nH]nc(NCCO)c1[N+](=O)[O-]	23.9%
O=C1c2ccccc2COc2ccc(O)cc21	10.9%
CCOc1ccc(C2CC(=O)n3nc(C45CC6CC(CC(C6)C4)C5)nc3S2)cc1OC (centres unmarked)	2.9%
COc1ccc(OC)c(CNC(=O)CCC(=O)N2Cc3cccc(OC)c3Oc3ncccc32)c1	-15.4%
Cc1ccc(Nc2n[nH]c(C)c2[N+](=O)[O-])cc1C	19.2%
C/C(=N\NC(=O)c1ccncc1)c1cccnc1	26.7%

Structure (SMILES)	hERG current change (%, negative = inhibition) at 10uM
NC(=O)NC(CC(=O)NCCCc1ccccc1)c1ccccc1Cl (centres unmarked)	5.09%
CC(=O)Nc1ccc(S(=O)(=O)NCC2CCC(C(=O)NCCC(C)C)CC2)cc1 (centres unmarked)	19.9%
C1CCC(NC2=NCCC2)CC1.Cl	-1.01%
CC(OC(=O)CNS(=O)(=O)/C=C/c1ccccc1)C(=O)Nc1ccc(S(=O)(=O)N2CCCC2)cc1 (centres unmarked)	-5.21%
NC(=O)C1CCN(C(=O)CNC(=O)c2ccccc2)CC1	-11.3%
CC#CCOC(=O)c1c(C)nc2sc3c(c2c1N)CCC(O)C3 (centres unmarked)	-12.5%
CCc1cc(=O)oc2cc(OC(C)C(=O)NCCCn3ccnc3)ccc12 (centres unmarked)	9.41%
CCN(CC)c1ccc(C=C2C(=O)OC(c3ccccc3)OC2=O)cc1 (centres unmarked)	25.3%
Cc1ccnc(NC(=O)c2ccoc2C)c1	-1.08%
CCCN1CCN(S(=O)(=O)c2ccc(-n3cnnn3)cc2)CC1	-28%
CCOC(=O)N1CCC(NC(=O)c2sc3nc4n(c(=O)c3c2C)CCCC4)CC1	-1.15%
COc1ccc(-c2c[n+](CC(=O)OC3CC(C)CCC3C(C)C)c3n2CCC3)cc1.[Cl-] (centres unmarked)	-69.3%
Cc1cc(C(=O)O)oc(=O)c1	21.4%
CC(=O)N=c1c(C#N)cc2c(=O)n3ccccc3nc2n1Cc1ccccc1	-40.2%
Cc1cccn2c(=O)c3cc(C(=O)NC4CCCCC4)n(C)c3nc12	12.5%
Cc1cccc(-n2nc(C)c3c2NC2=C(C(=O)CCC2)C3c2ccccn2)c1 (centres unmarked)	-1.32%
COc1ccc(NC(=O)CN(C)C(=O)CNC(=O)c2ccc(C)s2)cc1	-0.574%
Cc1nnc(SCC(=O)Nc2ccc(Cl)cn2)s1	10.7%
O=[N+]([O-])c1ccc(Cl)c(/C=N/N2CCN(Cc3ccccc3)CC2)c1	-1.74%
CN/S(=N/S(=O)(=O)c1ccccc1)c1ccc(C)cc1 (centres unmarked)	0.084%
COc1ccccc1CN(C)C(=O)C1(c2ccc(Cl)cc2)CC1	-17.7%
O=C(O)C1CCCCC1C(=O)Nc1ccc(S(=O)(=O)N2CCCC2)cc1 (centres unmarked)	15.5%
O=C1C=C(c2ccc(-c3ccccc3)c(F)c2)C[C@@H](c2ccc(Cl)cc2)C1	10.6%
